Measured values taken from PMC7819943, “Rice protein-binding microarrays: a tool to detect cis-acting elements near promoter regions in rice”.
This is one part of the list.

Each sequence was assayed against T1, OsWOX13 (Oryza sativa, UniProt Q5QMM3 1-267) (assay: protein-binding microarray (RPBM); PBS, 2% BSA, 51.3 ng/ul salmon testes DNA, 50 uM zinc acetate, 200 nM TF, 25 C, 1 h; high values mean tight binding). Conditions: protein: recombinant; tags: N-terminal polyhistidine and DsRed monomer fusion (pET32a); label: CyDye5-dUTP incorporated in the synthesized complementary strand; 3' TTTTT single-stranded linker to array surface; dsDNA, one strand shown.
T1 sequence: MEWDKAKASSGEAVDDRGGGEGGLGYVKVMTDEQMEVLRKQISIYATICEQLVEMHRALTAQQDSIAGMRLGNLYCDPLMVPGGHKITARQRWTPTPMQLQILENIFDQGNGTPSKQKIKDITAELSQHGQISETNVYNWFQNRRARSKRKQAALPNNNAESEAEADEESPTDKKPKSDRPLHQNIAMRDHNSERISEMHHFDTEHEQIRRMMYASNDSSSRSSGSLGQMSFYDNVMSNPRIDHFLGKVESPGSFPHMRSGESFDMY
How it was run: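 Polyhistidine-tagged DsRed fusions of transcription factors, joined at the N-terminus, were expressed in E. coli BL21-CodonPlus and isolated on Ni–NTA. They were incubated at 200 nM for 1 h at 25 °C on a custom Agilent array, double-stranded and BSA-blocked, in PBS with 2% BSA, salmon testes DNA and 50 µM zinc acetate. The binding signal is per-feature fluorescence intensity (arbitrary units) read on an Axon 4000B scanner after washing.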

Row | Sequence | binding signal
1 | TATCCAATTTGATCATATCTGGAATCATATGCAGTCAGCACGGAGTCACCTAGTGCAG | 4020 fluorescence intensity (a.u.)
2 | GAGCTTGATTGCCAAAACACAAACTCACTCGCGGCTGCAACGGAGTCACCTAGTGCAG | 39100 fluorescence intensity (a.u.)
3 | ATTGACATTTTGTTGACAATACCATTATACACTCACATTTCGGAGTCACCTAGTGCAG | 3340 fluorescence intensity (a.u.)
4 | ACGGTAATTAACGTTGATTACCATAATTAGCGGCGCATTGCGGAGTCACCTAGTGCAG | 65200 fluorescence intensity (a.u.)
5 | GTTTAACTTGCTAAATTAAATGGAGAGTTGACCAAATAGACGGAGTCACCTAGTGCAG | 4390 fluorescence intensity (a.u.)
6 | CAAATCAATAATTAAATATATTTTCATAATAAATTTGTCTCGGAGTCACCTAGTGCAG | 25900 fluorescence intensity (a.u.)
7 | ATAGTTAATTAATGATGCATTAGAAGCCTTAGTAGATTGGCGGAGTCACCTAGTGCAG | 38600 fluorescence intensity (a.u.)
8 | TTTTAATTTCATAAATATTCAACAATTAAAACTAGATTTGCGGAGTCACCTAGTGCAG | 7010 fluorescence intensity (a.u.)
9 | TTTAGTTAATTAGTAGTTGTTAATTATCTTCACTAACCTTCGGAGTCACCTAGTGCAG | 28800 fluorescence intensity (a.u.)
10 | CGCCAATCATGCTATGATTATTTTACTGGGCATAATACTACGGAGTCACCTAGTGCAG | 36300 fluorescence intensity (a.u.)
11 | ACTCCTGATCAATTAATCATCTCTCAGACTCAGTTTACAACGGAGTCACCTAGTGCAG | 21900 fluorescence intensity (a.u.)
12 | TGGGTTATTTCGTTGATTGCCGAGAATTCGAGCATGCGATCGGAGTCACCTAGTGCAG | 15000 fluorescence intensity (a.u.)
13 | CTATTAAATTGGCTAGAGATGAATTGGAGCTAGTAGTGGGCGGAGTCACCTAGTGCAG | 43200 fluorescence intensity (a.u.)
14 | CGGTAAATTATACTTATATGAAATAGTTTGAAAGGGTTAACGGAGTCACCTAGTGCAG | 7120 fluorescence intensity (a.u.)
15 | GTAATTGATTTTCTGGCGCGATTAAGAGCTTGGTATATAGCGGAGTCACCTAGTGCAG | 59200 fluorescence intensity (a.u.)
16 | AAAATAGATGAACTAAATGCCCCTCCGTTGAGCAGTTCTGCGGAGTCACCTAGTGCAG | 6740 fluorescence intensity (a.u.)
17 | TGATGAGACAGGCATGGTTGATTGATGTGTGGACAAAGCTCGGAGTCACCTAGTGCAG | 31000 fluorescence intensity (a.u.)
18 | GCATATTTTGAGATTGACGAAGTCACCACAGGCGCCTCGCCGGAGTCACCTAGTGCAG | 12400 fluorescence intensity (a.u.)
19 | TGCTTGATTGCAGCTTGGACTTTGGAGTACGAATTGAAAGCGGAGTCACCTAGTGCAG | 28100 fluorescence intensity (a.u.)
20 | GCTTTGACTGCTCATGCGGTTACTCTCCACTCGTGAGGGGCGGAGTCACCTAGTGCAG | 5000 fluorescence intensity (a.u.)
21 | TGCTGATGGAATGCCGTGGAAATTCATTCCAACACAGAGACGGAGTCACCTAGTGCAG | 12200 fluorescence intensity (a.u.)
22 | ATGTAATTTACGTGAGTCTGTACACATGTTTCCTGCATTTCGGAGTCACCTAGTGCAG | 9360 fluorescence intensity (a.u.)
23 | TATAATTTTACTAGCTATCATCATGTTCAAAATTACATTCCGGAGTCACCTAGTGCAG | 6430 fluorescence intensity (a.u.)
24 | TAAATTTTAATTTTCTGATTGGTATGCCACGTTAGTGAAACGGAGTCACCTAGTGCAG | 27700 fluorescence intensity (a.u.)
25 | CAAGTTTAATTAACATCCCTTAAACCGTAATATCAAGAATCGGAGTCACCTAGTGCAG | 8360 fluorescence intensity (a.u.)
26 | CAACATAATTACTACTACTAAGATAGTCCTATTTTCTTTTCGGAGTCACCTAGTGCAG | 5760 fluorescence intensity (a.u.)
27 | TCTTATGTCAATTAGACCAAAGGGATGGATATTAAATGATCGGAGTCACCTAGTGCAG | 13000 fluorescence intensity (a.u.)

Row | Sequence | binding signal
28 | GTCTGATGAAACTGTTGGCTGAATGGCTCCGGACCCACGACGGAGTCACCTAGTGCAG | 7120 fluorescence intensity (a.u.)
29 | GCAGTAATTAAGTAGCTAGCAGAGGGGCAGAGAGAGAGAGCGGAGTCACCTAGTGCAG | 10100 fluorescence intensity (a.u.)
30 | TATATATATATATATATATATAGAGGAACTGGATATTTGGCGGAGTCACCTAGTGCAG | 6430 fluorescence intensity (a.u.)
31 | AGCTTTTCAGACTGAAAATGTAATAGACAACCTTATCAGACGGAGTCACCTAGTGCAG | 3810 fluorescence intensity (a.u.)
32 | GATGTTAAATTTGTAGTTTTATAATACGATACCTTTAAATCGGAGTCACCTAGTGCAG | 4340 fluorescence intensity (a.u.)
33 | ACTGATTTTAAAACTGAGGTCGAGGTCGAGGCAGGGCCTACGGAGTCACCTAGTGCAG | 16000 fluorescence intensity (a.u.)
34 | CTACTTGATTAATCATAATAATATACTCAATCTTTGTTTTCGGAGTCACCTAGTGCAG | 44200 fluorescence intensity (a.u.)
35 | CTAATATATTGACGTGCAATTCTTTTACGTCTTCGCGAAACGGAGTCACCTAGTGCAG | 6160 fluorescence intensity (a.u.)
36 | TAGATTACTGATAAAACCTATTACATAACCCCTGGGCTATCGGAGTCACCTAGTGCAG | 3810 fluorescence intensity (a.u.)
37 | ATATATAAATTGTATGATTCTCTCTATTATAATCTTTCCACGGAGTCACCTAGTGCAG | 4350 fluorescence intensity (a.u.)
38 | CTGATTGTCTGCAGTAATGTAGACGACAGTTACTGCTCATCGGAGTCACCTAGTGCAG | 32000 fluorescence intensity (a.u.)
39 | ATATCATCAATTTATCACCAATCTGAATTTATTTTCCACCCGGAGTCACCTAGTGCAG | 12500 fluorescence intensity (a.u.)
40 | ATTTCTTAATGAAAGGAGAACTAATTAGGTCGCATGCGCCCGGAGTCACCTAGTGCAG | 3290 fluorescence intensity (a.u.)
41 | TTGATTCGAATTGATGTCATTAGCACCTATAACTTCCGACCGGAGTCACCTAGTGCAG | 14000 fluorescence intensity (a.u.)
42 | AACTGATTTGATGTGAATTTCTTTTATTCCAATTGAACATCGGAGTCACCTAGTGCAG | 50900 fluorescence intensity (a.u.)
43 | TTGTATAAATTGCTATTAGATTGGCTATATATGAATTAGACGGAGTCACCTAGTGCAG | 37500 fluorescence intensity (a.u.)
44 | GGTTTATTTGGGACAGGTGGGAGGTTGGTAAGTGAGAATACGGAGTCACCTAGTGCAG | 3500 fluorescence intensity (a.u.)
45 | AGCAAAATTGATTGCTAATCTTCGGTGTCCAGCAGAGCCCCGGAGTCACCTAGTGCAG | 64900 fluorescence intensity (a.u.)
46 | AGGATTGACTGGGCGCTGGAGAGGATTGACTGGTTAGGGTCGGAGTCACCTAGTGCAG | 49300 fluorescence intensity (a.u.)
47 | TATAGATGGACTAAATCAACGTGCCACGTCAATGAAACTACGGAGTCACCTAGTGCAG | 4380 fluorescence intensity (a.u.)
48 | AATAATTATTTCTATAATCCCATGAATAGTTCGGTAAGAACGGAGTCACCTAGTGCAG | 19500 fluorescence intensity (a.u.)
49 | ATGAGGTTATTGATTTGCTGAATAAACAATTTTATGGTGACGGAGTCACCTAGTGCAG | 3750 fluorescence intensity (a.u.)
50 | AATATCATAATTAATAGATACAATTGCCTAAACTTTATCTCGGAGTCACCTAGTGCAG | 13800 fluorescence intensity (a.u.)
51 | GCTTCTCTAATTGTCAAATCCAAAACGTTTTATTTACTAACGGAGTCACCTAGTGCAG | 7600 fluorescence intensity (a.u.)
52 | TTGGATCACTCAATAAATTTAATGCATGTAACCGATAGGACGGAGTCACCTAGTGCAG | 4770 fluorescence intensity (a.u.)
53 | TCTTGATGAAACGAAAACATATGTGGTAACTCCACCCTCACGGAGTCACCTAGTGCAG | 4440 fluorescence intensity (a.u.)
54 | ACCTAATATCAAATAATTAAAAGGGGTGAGATTTCGAATTCGGAGTCACCTAGTGCAG | 4590 fluorescence intensity (a.u.)
